Reference: publication PMC5892938
Some of the results follow. At the low end of the ranking the order means little.

target: GST-SBP-SLBP (stem-loop binding protein) (UniProt Q14493); test: targeted RNA Bind-n-Seq; settings: RBNS binding buffer: 25 mM Tris pH 7.5, 150 mM KCl, 3 mM MgCl2, 0.1% Tween, 0.5 mg/mL BSA, 1 mM DTT; 27 nM protein, 750 pM RNA pool; temperature not stated; high values mean tight binding;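 also: DESeq read counts versus GST-SBP nonspecific binding control pulldown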

Sequence | binding signal (log2 fold change)
GGUCACGUCUCAAUCAACUCAUUCCCAGGAGUUUUCUCCUGCUAUCUCAACAGCUCGCAGUCAAG | -0.0191
GGUCACGUCUCAAUCAACUCAGUCUCCAGGGAAAACCCUGGCAAAUUCAACAGCUCGCAGUCAAG | 0.13
GGUCACGUCUCAAUCAACUCUUCUUCAGGAGUUUCCUCCUGCAAUUUCAACAGCUCGCAGUCAAG | 0.135
GGUCACGUCUCAAUCAACUCAAGUCCAGGAGUUUACUCCUGCUAUUUCAACAGCUCGCAGUCAAG | -0.168
GGUCACGUCUCAAUCAACUCUAUCCCCAGGGAAACCCCUGGUAUAUUCAACAGCUCGCAGUCAAG | 0.0455
GGUCACGUCUCAAUCAACUCAUUUCCAGGAGUUUCCUCCUGCAUACUCAACAGCUCGCAGUCAAG | 0.134
GGUCACGUCUCAAUCAACUCAUCCUCCAGGGAAACCCCUGGCUUAUUCAACAGCUCGCAGUCAAG | 0.13
GGUCACGUCUCAAUCAACUCAACUCCCAGGGAAACCCCUGGUUUUUUCAACAGCUCGCAGUCAAG | -0.262
GGUCACGUCUCAAUCAACUCAUCUCCCAGGGAAAUCCCUGGCAAUCUCAACAGCUCGCAGUCAAG | 0.0148
GGUCACGUCUCAAUCAACUCAACUUCAGGAGUUUCCUCCUGUAUACUCAACAGCUCGCAGUCAAG | -0.0354
GGUCACGUCUCAAUCAACUCUUUCGAGGGGGGGAAAACCCCUUUACCCUCAAUAUCAACAGCUCGCAGUCAAG | -0.0586
GGUCACGUCUCAAUCAACUCAAUCGCAGGAGUUUACUCCUGGUAACUCAACAGCUCGCAGUCAAG | 0.111
GGUCACGUCUCAAUCAACUCCUAAGAGGGGGGGAAAACCCCUUUGCCCUCAUUAUCAACAGCUCGCAGUCAAG | 0.00317
GGUCACGUCUCAAUCAACUCAUUCCCCAGGGAAAUCCCUGGCAAUUUCAACAGCUCGCAGUCAAG | 0.233
GGUCACGUCUCAAUCAACUCAAUGGAGGGGGGGAAAACCCCUUUACCCUCAGAAUCAACAGCUCGCAGUCAAG | 0.0924
GGUCACGUCUCAAUCAACUCAACUCCAGGAGUUUGCUCCUGUAUUUUCAACAGCUCGCAGUCAAG | 0.0723
GGUCACGUCUCAAUCAACUCAUCUUCAGGAGUUUACUCCUGUAAAUUCAACAGCUCGCAGUCAAG | -0.135
GGUCACGUCUCAAUCAACUCUUCUCCCAGGGAAAACCCUGGUUAUCUCAACAGCUCGCAGUCAAG | -0.178
GGUCACGUCUCAAUCAACUCUUUUCCCAGGGAAAGCCCUGGCAUAUUCAACAGCUCGCAGUCAAG | 0.0307
GGUCACGUCUCAAUCAACUCUCACGAGGGGGGGAAAACCCCUUUACCCUCACUUUCAACAGCUCGCAGUCAAG | 0.0771
GGUCACGUCUCAAUCAACUCUCUAGAGGGGGGGAAAACCCCUUUACCCUCAUUCUCAACAGCUCGCAGUCAAG | -0.0856
GGUCACGUCUCAAUCAACUCUUUCUCAGGAGUUUUCUCCUGUUAAUUCAACAGCUCGCAGUCAAG | 0.0523
GGUCACGUCUCAAUCAACUCAAACGAGGGGGGGAAAACCCCUUUGCCCUCAAUUUCAACAGCUCGCAGUCAAG | -0.234
GGUCACGUCUCAAUCAACUCUUCCCCCAGGGAAAGCCCUGGUUAAUUCAACAGCUCGCAGUCAAG | -0.0159
GGUCACGUCUCAAUCAACUCAAUCUCAGGAGUUUCCUCCUGCAAAUUCAACAGCUCGCAGUCAAG | -0.0947

Sequence | binding signal (log2 fold change)
GGUCACGUCUCAAUCAACUCAUUUUCAGGAGUUUGCUCCUGUAAUCUCAACAGCUCGCAGUCAAG | 0.0709
GGUCACGUCUCAAUCAACUCUUUUCCAGGAGUUUUCUCCUGUAUUCUCAACAGCUCGCAGUCAAG | 0.0495
GGUCACGUCUCAAUCAACUCCCAAGAGGGGGGGAAAACCCCUUUGCCCUCCAAUUCAACAGCUCGCAGUCAAG | 0.146
GGUCACGUCUCAAUCAACUCAAUUCCCAGGGAAAUCCCUGGUUUUCUCAACAGCUCGCAGUCAAG | -0.076
GGUCACGUCUCAAUCAACUCUACUCCAGGAGUUUUCUCCUGUUAUCUCAACAGCUCGCAGUCAAG | -0.0302
GGUCACGUCUCAAUCAACUCUUCUCCCAGGGAAACCCCUGGUUAUUUCAACAGCUCGCAGUCAAG | 0.372
GGUCACGUCUCAAUCAACUCAAUUUCCAGGGAAACCCCUGGUAUUCUCAACAGCUCGCAGUCAAG | -0.115
GGUCACGUCUCAAUCAACUCAAUCCCAGGAGUUUCCUCCUGUAGUCUCAACAGCUCGCAGUCAAG | -0.0291
GGUCACGUCUCAAUCAACUCAGUCUCCAGGGAAAGCCCUGGCAAUCUCAACAGCUCGCAGUCAAG | 0.0778
GGUCACGUCUCAAUCAACUCAAUCUCCAGGGAAAUCCCUGGCAUAUUCAACAGCUCGCAGUCAAG | 0.0318
GGUCACGUCUCAAUCAACUCAUUUCCAGGAGUUUACUCCUGUUAUUUCAACAGCUCGCAGUCAAG | 0.0536
GGUCACGUCUCAAUCAACUCAUCUCCCAGGGAAACCCCUGGCUUUUUCAACAGCUCGCAGUCAAG | 0.00794
GGUCACGUCUCAAUCAACUCAUUCCCAGGAGUUUUCUCCUGUUUACUCAACAGCUCGCAGUCAAG | 0.203
GGUCACGUCUCAAUCAACUCUAUCUCAGGAGUUUUCUCCUGUAAACUCAACAGCUCGCAGUCAAG | 0.107
GGUCACGUCUCAAUCAACUCAUUAGAGGGGGGGAAAACCCCUUUGCCCUCCAAAUCAACAGCUCGCAGUCAAG | 0.283
GGUCACGUCUCAAUCAACUCCCUCGAGGGGGGGAAAACCCCUUUACCCUCUCUAUCAACAGCUCGCAGUCAAG | -0.0615
GGUCACGUCUCAAUCAACUCAAACGAGGGGGGGAAAACCCCUUUACCCUCAUUCUCAACAGCUCGCAGUCAAG | 0.326
GGUCACGUCUCAAUCAACUCAAUUUCCAGGGAAACCCCUGGUUUUCUCAACAGCUCGCAGUCAAG | 0.173
GGUCACGUCUCAAUCAACUCAACGCCAGGAGUUUUCUCCUGUAUUUUCAACAGCUCGCAGUCAAG | 0.0894
GGUCACGUCUCAAUCAACUCAAUUCCCAGGGAAAUCCCUGGCUAUCUCAACAGCUCGCAGUCAAG | 0.251
GGUCACGUCUCAAUCAACUCUAGUCCCAGGGAAACCCCUGGCUUAUUCAACAGCUCGCAGUCAAG | 0.054
GGUCACGUCUCAAUCAACUCGUCUUCAGGAGUUUCCUCCUGCUAAUUCAACAGCUCGCAGUCAAG | 0.00712
GGUCACGUCUCAAUCAACUCUUCUUCCAGGGAAACCCCUGGUUAUCUCAACAGCUCGCAGUCAAG | -0.058
GGUCACGUCUCAAUCAACUCCAAAGAGGGGGGGAAAACCCCUUUGCCCUCAUAUUCAACAGCUCGCAGUCAAG | 0.158
GGUCACGUCUCAAUCAACUCAUUCUCCAGGGAAACCCCUGGUUAACUCAACAGCUCGCAGUCAAG | -0.172

Sequence | binding signal (log2 fold change)
GGUCACGUCUCAAUCAACUCAUUCCCAGGAGUUUCCUCCUGUUUUCUCAACAGCUCGCAGUCAAG | -0.0426
GGUCACGUCUCAAUCAACUCAUUUCCAGGAGUUUACUCCUGCUAUCUCAACAGCUCGCAGUCAAG | -0.0271
GGUCACGUCUCAAUCAACUCAUCCCCCAGGGAAAUCCCUGGCAUUCUCAACAGCUCGCAGUCAAG | 0.188
GGUCACGUCUCAAUCAACUCAUCCUCCAGGGAAAACCCUGGUUUUCUCAACAGCUCGCAGUCAAG | 0.119
GGUCACGUCUCAAUCAACUCAUCCUCAGGAGUUUACUCCUGUUAACUCAACAGCUCGCAGUCAAG | 0.0749
GGUCACGUCUCAAUCAACUCUUUUUCAGGAGUUUCCUCCUGCUAACUCAACAGCUCGCAGUCAAG | 0.0191
GGUCACGUCUCAAUCAACUCUUCCUCCAGGGAAAUCCCUGGUAAAUUCAACAGCUCGCAGUCAAG | 0.28
GGUCACGUCUCAAUCAACUCAGUCCCAGGAGUUUUCUCCUGUUUUCUCAACAGCUCGCAGUCAAG | 0.0934
GGUCACGUCUCAAUCAACUCAUUCCCCAGGGAAAACCCUGGUUAAUUCAACAGCUCGCAGUCAAG | 0.155
GGUCACGUCUCAAUCAACUCCUUCGAGGGGGGGAAAACCCCUUUACCCUCUAUAUCAACAGCUCGCAGUCAAG | -0.321
GGUCACGUCUCAAUCAACUCAAUUCCCAGGGAAACCCCUGGCAUAUUCAACAGCUCGCAGUCAAG | 0.0493
GGUCACGUCUCAAUCAACUCUUUCUCCAGGGAAAGCCCUGGUUUUUUCAACAGCUCGCAGUCAAG | -0.255
GGUCACGUCUCAAUCAACUCUAUCUCCAGGGAAACCCCUGGCAAUUUCAACAGCUCGCAGUCAAG | -0.03
GGUCACGUCUCAAUCAACUCUUCUCCAGGAGUUUUCUCCUGCUUUUUCAACAGCUCGCAGUCAAG | 0.0172
GGUCACGUCUCAAUCAACUCAUCCCCCAGGGAAAGCCCUGGCUUACUCAACAGCUCGCAGUCAAG | 0.352
GGUCACGUCUCAAUCAACUCAAUUUCCAGGGAAAGCCCUGGCAUUCUCAACAGCUCGCAGUCAAG | -0.0792
GGUCACGUCUCAAUCAACUCAUCCUCAGGAGUUUCCUCCUGCAUACUCAACAGCUCGCAGUCAAG | 0.108
GGUCACGUCUCAAUCAACUCCUCAGAGGGGGGGAAAACCCCUUUGCCCUCAAAUUCAACAGCUCGCAGUCAAG | 0.191
GGUCACGUCUCAAUCAACUCUAUUUCCAGGGAAACCCCUGGUAUUCUCAACAGCUCGCAGUCAAG | -0.154
GGUCACGUCUCAAUCAACUCUUCAGAGGGGGGGAAAACCCCUUUGCCCUCAUUAUCAACAGCUCGCAGUCAAG | -0.0583
GGUCACGUCUCAAUCAACUCAGUCCCCAGGGAAAACCCUGGCUAAUUCAACAGCUCGCAGUCAAG | -0.133
GGUCACGUCUCAAUCAACUCAACUCCCAGGGAAACCCCUGGCAUUCUCAACAGCUCGCAGUCAAG | 0.171
GGUCACGUCUCAAUCAACUCAUCCUCCAGGGAAAGCCCUGGCAUAUUCAACAGCUCGCAGUCAAG | 0.0586
GGUCACGUCUCAAUCAACUCUACUCCAGGAGUUUACUCCUGUAUUUUCAACAGCUCGCAGUCAAG | 0.158
